# According to article PMC4336329 (PLoS ONE, 2015):
# About 2,200 (0.71%) of roughly 310,000 compounds showed an effect of 50% or more. The effect is printed as a negative number. This is one part of the list.
# Target: human ether-à-go-go-related gene (hERG) potassium channel (human, UniProt Q12809)
# Assay: primary screen, population patch clamp on CHO cells stably expressing hERG
# Sequence of human ether-à-go-go-related gene (hERG) potassium channel (Q12809 whole entry, looked up): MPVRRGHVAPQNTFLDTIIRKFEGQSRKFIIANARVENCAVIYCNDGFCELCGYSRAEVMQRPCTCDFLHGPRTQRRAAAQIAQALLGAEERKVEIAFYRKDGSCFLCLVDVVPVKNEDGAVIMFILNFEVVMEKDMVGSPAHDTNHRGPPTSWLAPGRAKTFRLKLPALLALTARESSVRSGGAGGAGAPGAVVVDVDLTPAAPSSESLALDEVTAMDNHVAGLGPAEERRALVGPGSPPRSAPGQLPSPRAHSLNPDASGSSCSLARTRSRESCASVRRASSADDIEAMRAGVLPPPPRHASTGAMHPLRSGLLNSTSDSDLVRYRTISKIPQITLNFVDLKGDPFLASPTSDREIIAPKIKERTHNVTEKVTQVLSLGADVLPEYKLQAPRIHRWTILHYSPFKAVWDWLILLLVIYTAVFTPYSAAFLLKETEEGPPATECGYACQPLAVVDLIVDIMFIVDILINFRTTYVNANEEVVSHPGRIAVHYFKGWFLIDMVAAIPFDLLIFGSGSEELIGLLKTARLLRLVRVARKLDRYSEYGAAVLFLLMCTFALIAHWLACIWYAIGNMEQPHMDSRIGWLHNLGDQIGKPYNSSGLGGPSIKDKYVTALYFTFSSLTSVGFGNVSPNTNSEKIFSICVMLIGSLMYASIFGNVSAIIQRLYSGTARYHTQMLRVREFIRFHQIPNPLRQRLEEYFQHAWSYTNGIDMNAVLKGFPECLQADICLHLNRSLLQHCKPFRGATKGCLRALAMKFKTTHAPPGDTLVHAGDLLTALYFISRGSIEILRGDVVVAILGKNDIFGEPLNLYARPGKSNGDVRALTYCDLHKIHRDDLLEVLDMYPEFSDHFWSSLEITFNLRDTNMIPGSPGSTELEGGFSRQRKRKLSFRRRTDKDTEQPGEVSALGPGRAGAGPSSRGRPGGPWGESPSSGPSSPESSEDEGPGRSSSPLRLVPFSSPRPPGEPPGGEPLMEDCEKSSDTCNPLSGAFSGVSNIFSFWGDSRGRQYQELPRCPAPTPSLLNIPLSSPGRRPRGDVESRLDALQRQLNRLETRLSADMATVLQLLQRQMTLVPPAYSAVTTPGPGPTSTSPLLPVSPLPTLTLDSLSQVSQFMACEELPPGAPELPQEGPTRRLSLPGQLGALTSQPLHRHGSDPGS
row,SMILES,"hERG current change (%, negative = inhibition) at 1uM [%]"
1,CC(=O)NC(CC(=O)Nc1cccc(S(=O)(=O)N2CCCCC2)c1)c1ccccc1 (centres unmarked),6.54
2,Cc1cc(NC(=O)CSc2ccc3nnc(-c4ccc(Cl)cc4)n3n2)no1,0.212
3,COCCn1c(=O)[nH]c2cc(C(=O)Nc3ccc(OC)c(Cl)c3)ccc2c1=O,12.7
4,CCOC(=O)c1ccc(NC(=O)c2c(O)[nH]c(=O)[nH]c2=O)cc1,14.2
5,COc1ccccc1CNC(=O)c1ccc2c(=O)n(CC3CCCO3)c(=S)[nH]c2c1 (centres unmarked),10.9
6,Cc1ccc(S(=O)(=O)/N=C(\CCl)N2CCOCC2)cc1,7.88
7,CC(=O)Nc1ccc(NC(=O)COc2c(C)cc(Br)cc2C)cc1,7.02
8,COc1ccc(C2C(C(=O)Nc3ccccc3OC)=C(C)Nc3ncnn32)cc1 (centres unmarked),-5.28
9,CCOC(=O)c1cc2c(c(CSc3nc4ccccc4c(=O)n3Cc3ccco3)c1)OCOC2,19.9
10,CCN(CC)C(=O)c1ccc(-c2nnc(Nc3ccc(C(=O)NC)cc3)c3ccccc23)cc1,6.17
11,Cc1ccc(Cl)cc1N1CCN(S(=O)(=O)c2ccc3[nH]c(=O)c(=O)[nH]c3c2)CC1,20.8
12,CN1CCN(c2nc3ccccn3c(=O)c2C=C2C(=O)N(C)C(=O)N(C)C2=O)CC1,14.4
13,COc1ccc(Cl)cc1NC(=O)C1CSC(c2ccncc2)=N1 (centres unmarked),10.6
14,CCOC(=O)N1CCN(C(=O)CN(Cc2ccccc2)S(=O)(=O)c2ccc(OC)c(C)c2)CC1,6.12
15,COc1ccc(N2CCN(C3CCCCC3NS(=O)(=O)c3ccccc3)CC2)cc1 (centres unmarked),11.3
16,Cc1cc(C)cc(C(=O)OCC(=O)N2CCCCCC2)c1,11.2
17,O=C(Oc1cccc2c(OC(=O)N3CCOCC3)cccc12)N1CCOCC1,17.5
18,Cc1cc(C)cc(-n2nnn(C3C/C(=N/NC(N)=S)C4OCC3O4)c2=S)c1 (centres unmarked),14.4
19,CC(C)c1c(C(=O)N/N=C/c2cccc3ccccc23)nnn1-c1nonc1N,16.3
20,CCN(Cc1nc2cc(Cl)ccc2c(=O)[nH]1)C(=O)COc1ccccc1Cc1ccccc1,3.97
21,CN1CCN(CCCNC(=O)c2cc3c(=O)n(C)c4ccccc4c3s2)CC1,10.5
22,CC(C)(C)c1ccc(/C=N/NC(=O)C2CCCC2)cc1,13.4

row,SMILES,"hERG current change (%, negative = inhibition) at 1uM [%]"
1,Cc1ccc(-n2c(CNc3ccc(F)cc3)nnc2SCC(=O)N2CCCC2)cc1,5.65
2,COc1ccc(C)cc1NC(=O)CNC(C)C(=O)Nc1ccc(C(C)=O)cc1 (centres unmarked),6.11
3,Cc1ccc(NC(=O)Nc2ccccc2F)cc1S(=O)(=O)N1CCOCC1,14.4
4,COc1ccc(Oc2cc(F)nc(N)n2)cc1,-6.97
5,COC(=O)C(O)(CC(=O)Nc1ccc(Cl)cc1Cl)C(F)(F)F (centres unmarked),9.79
6,COC(=O)C1=C(C(=O)OC)[C@@H]2N(C)c3ccccc3[C@@]23C[C@@H](CO)N(C(=O)C2CCC2)C3=N1,14.4
7,Cc1ccc(S(=O)(=O)NC2(C(F)(F)F)NC(=O)N(CCc3ccccc3)C2=O)cc1 (centres unmarked),7.1
8,O=C(NCCO)C1(c2ccccc2)CCCC1,13
9,COC(=O)c1ccccc1NC(=O)c1nc2nc(C)cc(C(F)F)n2n1,5.34
10,CC1CCC2(CC1)NC(=O)N(CC(=O)Nc1ccccc1-c1ccccc1)C2=O (centres unmarked),0.241
11,O=C(CSc1nnc2ncccn12)N1CCCCCC1,9.65
12,CC(C)c1cccc(C(C)C)c1NC(=O)COC(=O)c1ccc(OCC(=O)Nc2cccc(C(F)(F)F)c2)cc1,10.9
13,O=C(NCCC1=CCCCC1)C(c1ccccc1)c1ccccc1,6.73
14,CCCCn1c(N)c(N(CC(C)C)C(=O)C2CCN(S(=O)(=O)c3ccc(C)c(C)c3)CC2)c(=O)[nH]c1=O,-4.06
15,Cc1nnc(SCC(=O)Nc2ccc([N+](=O)[O-])cc2)n1C,11.4
16,C/C(=N\NC(=O)c1cc(-c2cccc([N+](=O)[O-])c2)n[nH]1)c1ccc(F)cc1,14.1
17,CCOC(=O)c1cc(-c2ccc(OC)cc2)nc2c1c(C)nn2CCC#N,11.6
18,CCCCNC(=S)N/N=C/C1=CCC2CC1C2(C)C (centres unmarked),11.1
19,CCOc1cccc(CNc2ccc(O)cc2)c1OCc1ccccc1Cl,20.2
20,CSC1=NCCN1C(=O)c1ccc(S(=O)(=O)N(C)C)cc1,11.7
21,C=CCN(CC=C)C(=S)NC(=O)c1ccc(OC)c(Br)c1,16
22,CC(Cl)C(=O)c1ccc2c(c1)CCN2C(=O)C1CC1 (centres unmarked),8.81

row,SMILES,"hERG current change (%, negative = inhibition) at 1uM [%]"
1,CC(=O)C1=C(O)C(=O)N(c2cccnc2)C1c1cccc([N+](=O)[O-])c1 (centres unmarked),-3.72
2,Cc1nc(C(F)(F)F)c(C(=O)O)cc1-c1nc(-c2ccccc2)cs1,18.6
3,COc1ccccc1CNCc1ccc(OC)c2ccccc12,10.7
4,Cc1cc(N2C(=O)CC(Cc3ccc(Cl)cc3)C2=O)no1 (centres unmarked),6.89
5,COc1ccccc1C(=O)Nc1ccc(S(=O)(=O)N2CCCCC2c2cccnc2)cc1 (centres unmarked),11.1
6,CSc1ncc(Cl)c(C(=O)Nc2ccccc2C)n1,-5.45
7,COc1ccc(/C=C(\NC(=O)c2ccc(OC)cc2)C(=O)NC(CCSC)C(=O)O)cc1 (centres unmarked),-12.9
8,COc1ccc(C(=O)Cn2c(=O)c(CCC(=O)O)nn3c4ccccc4nc23)cc1OC,-4.76
9,O=C(Cc1c(F)cccc1Cl)N(Cc1ccccc1)c1ccccn1,7.65
10,CC(=O)N(c1ccc2oc(=O)sc2c1)S(=O)(=O)c1cccc2cccnc12,10.7
11,Cc1nc(SCN2C(=O)c3ccccc3C2=O)n[nH]1,11.5
12,CSCCC(Nc1ncnc2ccc(Br)cc12)C(=O)O.Cl (centres unmarked),15.2
13,COc1ccc(CNC(=O)c2cnc3n(c2=O)CCS3)cc1,-3.08
14,COC(=O)c1cc(-c2cccc([N+](=O)[O-])c2)c2c(=O)n(C)c(=O)n(C)c2n1,13.4
15,COc1cc(NC(C)C(=O)N2CC(C)OC(C)C2)cc(OC)c1 (centres unmarked),6.7
16,Cc1sc2ncnc(SCC(=O)N3CCC(c4noc5ccc(F)cc45)CC3)c2c1C,9.72
17,Fc1ccc(Nc2nnc(C(F)(F)F)s2)cc1,9.01
18,Cc1cc(-n2c(C)cc(C(=O)CSc3nc4ccccc4c(=O)n3Cc3ccco3)c2C)no1,17.5
19,CCOCCCn1c(=NC(=O)c2ccco2)c(C(=O)OCC)cc2c(=O)n3cccc(C)c3nc21,-73.9
20,COCCCn1c(=O)c2ccccc2n(Cc2ccccc2C)c1=O,19.2
21,Cc1ccccc1C(=O)NC1CCN(CC(=O)NC2CCCCC2)CC1,0.348
22,CC(Oc1cccc(Cl)c1)C(=O)Nc1cc(=O)n(C)c(=O)n1C (centres unmarked),4.54

row,SMILES,"hERG current change (%, negative = inhibition) at 1uM [%]"
1,COCCCN1C(=O)C(=O)/C(=C(/O)c2ccc(C)cc2)C1/C=C/c1ccccc1 (centres unmarked),11.8
2,COc1cc(OC)c(C2CC(=O)N3CN(c4ccccc4C)CSC3=C2C#N)cc1OC (centres unmarked),-0.537
3,COC(=O)c1ccc(C2C(C(=O)c3cc4ccccc4o3)=C(O)C(=O)N2c2cc(C)on2)cc1 (centres unmarked),11.7
4,COc1ccccc1C(=O)NCC(=O)NC(C)c1ccc(-n2ccnc2)cc1 (centres unmarked),-2.86
5,CCN(CC)C(=O)c1ccc2c(c1[N+](=O)[O-])C(=O)c1ccccc1C2=O,8.64
6,COc1ccc(-c2csc(NC(=S)NC(=O)c3ccco3)n2)cc1Br,15.1
7,CC(C)Nc1ccc(Nc2ccccc2)cc1,12.4
8,Cc1cccc(C(=O)Nc2oc(-c3ccccc3)cc2C#N)c1,10.9
9,CCCN1C2CCCC1CC(NC(=O)c1ccc(C(C)(C)C)cc1)C2 (centres unmarked),-2.86
10,CN(C)CCCN(C(=O)c1cccs1)c1nc2cc3c(cc2s1)OCO3.Cl,-7.6
11,CCCCn1cnc2c1c(=O)[nH]c(=O)n2CCCC,1.93
12,O=C(c1ccccc1)N1CCN(C(=O)c2nn3c(C(F)(F)F)cc(-c4ccco4)nc3c2Cl)CC1,22.7
13,O=C(Cc1cccc(F)c1)N1CCCC(CO)(Cc2ccc(F)cc2F)C1 (centres unmarked),5.09
14,Cc1cccc(C(C)(C)C)c1OCCCCN1CCCC1.O=C(O)C(=O)O,-4.63
15,CC(=O)N1CC(C)Sc2ccc(S(=O)(=O)NCc3ccc(F)cc3)cc21 (centres unmarked),-12.2
16,CSC(=O)NC12CC3CC(CC(C)(C3)C1)C2,3.68
17,COc1ccc2c(=O)cc(-c3ccccc3F)oc2c1,15.6
18,CC(=O)c1cccc(NC(=O)CN2C(=O)C3C4C=CC(C4)C3C2=O)c1 (centres unmarked),11.2
19,COc1ccc(-c2[nH]ncc2N=Nc2ccccc2)cc1,15.7
20,COc1ccccc1OCC(=O)OCC(=O)Nc1ncc(Cl)cc1Cl,11.6
